The record followed here is the RNAGym collection of RNA variant scans (doi:10.7554/elife.90254).

B1: LINE1-full (parent)
chain: UACGUAGGUGGUUUUCCCCUGAUAGUGCUAAGGGGGCCUGGAAGUUUGGACUGGGCAGAGCUCAACACAGCGUGGCAAAGUGGCUGUGGCUAGACUGCCUCUCUGGAUUCCUCGUCACUCAGCAGGGCAUCUCUGAGAGAAAUGCC

Read counts are not given, so values of variants with three or more changes are uncertain.

This data set covers variants of B1. The data set can be described thus: self-cleavage, relative activity (ratio to wild type); higher = more cleavage; in vitro, sequencing; the parent is a self-cleaving ribozyme.
Take A78U G97A G114A C128U: the self-cleavage is 0.08.

With G88A U115G A117U, the self-cleavage was 0.04.

As for U87A U96C A129G A136G, the self-cleavage is 0.18.

With U81A U104C U112C, the self-cleavage was 2.78. Consider G86A U102G U115C, for which the self-cleavage was found to be 0. On to A79C G97A A107G, for which the self-cleavage is 0. The value for A79U A117U A124U A138G was 2.8; that for A78G A79G A124G was 0. Take U87G A129U U130C: the self-cleavage was determined as 0.09.

A79G U81C A117U: the self-cleavage was determined as 1.45.

Regarding A77U U96A A124G, the self-cleavage came out at 0.07. As for G82U U104A A129G, the self-cleavage came out at 1.41. Take U81C A92G A121U: the self-cleavage was 0.

Take A78G U112C U115C A136U A141G: the self-cleavage worked out at 1.67. The value for A79G A138U A140G C146U was 1.02; that for U81A U109C G125C was 2.67.

As for A78G U81A A142G, the self-cleavage turned out to be 0.44. To A78U U87C U96A belongs 0.15; to A78G U109C U115C, 1.31. With G83A U87C U100C U109C, the self-cleavage worked out at 0.11. Consider A79G A136U U143G, for which the self-cleavage worked out at 1.31. C90A U100C U109C A142G: the self-cleavage came to 0. The value for A77U A79U U132A was 2.31. Turning to G88A A107U U132C, the self-cleavage amounted to 0.04. For A78G U81C A124U, the self-cleavage was determined as 0.28. Regarding G80A U102C G106U C123U A141G, the self-cleavage was found to be 0.68. As for A78G G93U U104A, the self-cleavage worked out at 0.07. With A78G A124U A140G, the self-cleavage was found to be 1.32.

In the case of A78C A79G U100C, the self-cleavage came to 1.15. On to A79U U87C U102C, for which the self-cleavage worked out at 0.09. On to A77G U104A A129U, for which the self-cleavage came to 2.22. Consider A92U U102C U134A, for which the self-cleavage stood at 0.51. In the case of A79G U102A U104A, the self-cleavage turned out to be 1.16. As to U81G G89A C113A U132A, the self-cleavage was determined as 0.03. The value for U87A U96A A138G was 0.06; that for U85C A94G U115A was 0.14; that for A78G U132A U134A was 1.66. As to A92G U102A U112A, the self-cleavage was 0.18. Consider G89A U134G A138G, for which the self-cleavage amounted to 0. As for A79G U119C A142G, the self-cleavage was found to be 1.44. Take A77U A78G U96C A107U: the self-cleavage was determined as 0.04. On to U81C U104C A140G, for which the self-cleavage was determined as 0.5. On to U87A A94G A141G, for which the self-cleavage stood at 0.18. As to G93C U102C A129G A142G, the self-cleavage is 0.12.

On to A79G U85C C113A, for which the self-cleavage is 0.12.

For U91A U104C A117G, the self-cleavage was 0. A78G A117U A129G A140G: the self-cleavage is 1.05. As for A79G U87G A92U, the self-cleavage amounted to 0.05. A77G U115C U132C: the self-cleavage turned out to be 2.68. Turning to U87A U100A A140U, the self-cleavage worked out at 0.04.

Regarding A79G A94G A129G, the self-cleavage is 0.77.

As for A79U A92G A117G, the self-cleavage stood at 0.07.

With A78G U85A A142G, the self-cleavage came to 0.1.

On to U85A A92G U108C U143C, for which the self-cleavage came to 0. The value for A77U A129U U132C was 1.52; that for U81C U102C U109A was 1.1. For the variant A94G A107G G114U, the self-cleavage stood at 0.11.

U81C G106A U108A: the self-cleavage turned out to be 1.78. Turning to A94G A129U A140G, the self-cleavage came to 0.38. With G82A A94G U102C, the self-cleavage was 0.19.

As to U87A U134C U143C, the self-cleavage stood at 0.14. Take A78G A94G G97U A117U: the self-cleavage is 0.04.

Regarding A78G G80A U104A A141G, the self-cleavage turned out to be 2.77.

U81C U115C U143C: the self-cleavage came out at 0. The value for U85C U96C A136U was 0.09. For U85C A92G C111U, the self-cleavage stood at 0.18. For U85C A107G U108A A129U, the self-cleavage came to 0. Regarding A94G A121U U134C, the self-cleavage was 0. Take A78G U85C U87A: the self-cleavage is 0.12.

As for U87A U115A G144A, the self-cleavage came to 0.17. With A79G U91G A138G, the self-cleavage turned out to be 0. The value for A79G C123A U134C was 1.22.

Turning to U81A U91C A121G C133U, the self-cleavage stood at 0.32.

With A79G G93A A121U A140G, the self-cleavage worked out at 0.04. A78U C113A U119A: the self-cleavage is 1.4. In the case of A78G G86A G105A U132A, the self-cleavage was 0.06. The value for U91C G126U A140G was 0.5.

For U81C G122A A141G, the self-cleavage stood at 1.14. For A92U U96C U100C A140G, the self-cleavage worked out at 0.42. With A77U U104A A136G, the self-cleavage came to 2.28.

Regarding G80A G88A A124G, the self-cleavage was 0.03. As to A78G U85C U96C, the self-cleavage came to 0.38. For the variant U87C A124U A138G, the self-cleavage turned out to be 0.51. On to U87C G105U A121U, for which the self-cleavage came to 0.17.

Take U81A U112C A142G: the self-cleavage was 1.72. A79G U85C A121G U132C: the self-cleavage is 0. For U85C A129C U143A, the self-cleavage came to 0.34. U85C U109C A136G: the self-cleavage is 0.08.

Turning to U87A A124U C133U, the self-cleavage was found to be 0.08. Take G82A A94G U143C: the self-cleavage stood at 0.22. Turning to A78G A79G A136G, the self-cleavage was 1.03. A94G C99U U119C U132A: the self-cleavage was 0.13. For the variant G86A U115C A141G U143A, the self-cleavage is 0.03. Regarding U91C U104G G114A, the self-cleavage is 0.67. Turning to U85C C99U U119A A141G, the self-cleavage amounted to 0.03.

Take A92G U104C A142G: the self-cleavage was determined as 0.05.

Regarding A79G C84U A124U, the self-cleavage was found to be 0.18. U87C A129U A138U: the self-cleavage was determined as 0.22. For U81A U115A U134C A140G, the self-cleavage came to 2.87. To U85A U115A A117G belongs 0.06; to U81A C95U A121G, 0.42.

As to C84U U109A U130C, the self-cleavage worked out at 0.15. On to A77U A141G U143C, for which the self-cleavage came out at 0.61. The value for A79U A141G A142G was 2.23. To A79G A107G A142G belongs 1.07. Take A79G U96C A124U: the self-cleavage stood at 0.18. For U91C U109C A129U, the self-cleavage was 0.34.

As to U87C U96C C110A, the self-cleavage stood at 0.15. As for U87C U109C A138G, the self-cleavage was 0. G82U A92G C120U A136G: the self-cleavage is 0.04. U81A U109A A124U: the self-cleavage came out at 2.11. Consider U87C U104C A107G, for which the self-cleavage is 0.63. The value for U85A U87C A92G U100C A121U was 0.77; that for U85A A121C A129U was 0.06. U81A U85C A129G: the self-cleavage turned out to be 0.07. As for U85G A124U C145U, the self-cleavage turned out to be 0.12. With A78G U109C A138G A140G, the self-cleavage is 0.73. On to C90U G97A G122C, for which the self-cleavage was 0.03.

In the case of A92U G114A A124U, the self-cleavage is 0.43.

Take A79G U81C G83U A138C: the self-cleavage was 0.68. For the variant A77G U109G C146U, the self-cleavage came to 1.2. A77U U81C U109A: the self-cleavage is 1.43. Take U81A C103U U119A: the self-cleavage turned out to be 0.78. To U85G U112C A136U belongs 0.52; to A78U U87G U112C U119C U143A, 0.14; to A77U U96C U108C G114A A141G, 0.07. Take A92G U100C A124U: the self-cleavage worked out at 0. Regarding A79G C131U G144U, the self-cleavage amounted to 1.31. Consider A79G U87A U109C U130A, for which the self-cleavage was determined as 0.02. Regarding A78G U100C U102C, the self-cleavage came to 0.97. As to A78G U108C U112A A142G, the self-cleavage was determined as 1.21. For U91A U102A U112A A124G, the self-cleavage is 0.55. Regarding U81A U112A A138G, the self-cleavage was 2.03. With U81C U115A G125U, the self-cleavage came out at 0.77.

As to A92G C123U A138G, the self-cleavage is 0. Take U81A U87C U119A A142G: the self-cleavage came out at 0.26.

For U87A U91C U100C, the self-cleavage was found to be 0.79. On to A79G A107U U132A G135A, for which the self-cleavage turned out to be 0. U87A U130A U132C A140G: the self-cleavage is 0.

Turning to U87C U112C A138G, the self-cleavage is 0.53. For the variant A77U A107U A140G, the self-cleavage was 1.78. As for A78G G83A U96A, the self-cleavage came to 0.

Consider G93U A136G A138G, for which the self-cleavage is 0.06. As for A78G A140G A142G, the self-cleavage stood at 0.56. The value for A77U A92G U102A U134C was 0.4; that for A78C C116U U119C was 2. Take A79U C84U U102C A129G A142G: the self-cleavage stood at 0.04.

Take U81A U115C C123U A138G: the self-cleavage came out at 2.44.

In the case of U87A U115C A138G, the self-cleavage stood at 0. With U85A A142G C145U, the self-cleavage amounted to 0.07.

As for A92G G97A U108A, the self-cleavage was 0.13. For the variant A92C A94G U134A, the self-cleavage was determined as 0.48. With C90A U100C G135A, the self-cleavage was found to be 0.06.

Take A77U A121G A142G: the self-cleavage was 0.94.

On to G93A U100C U115C, for which the self-cleavage is 0.02. U85G G88A A121G A141G: the self-cleavage stood at 0.09.

With U87C G126U U130A, the self-cleavage turned out to be 0.31. The value for U81C U112C U132A U143C was 2.12; that for U85C U87A U134A was 0; that for U81A A92G A140G was 0.03. As to A79U U81A U85C G86A U130C, the self-cleavage worked out at 0.05. Turning to A79U U119C U132A, the self-cleavage is 2.82. The value for U81C A121U A124G was 1.41; that for U91C C116U U130C was 0.66. Consider U81C U112C U119A, for which the self-cleavage worked out at 0.75. Take A77U U132A A140G A142G: the self-cleavage was 1.81. Take G89A G126U A138G A142G: the self-cleavage was determined as 0.05.
